From PMC3681934
No constants are given. Whether binding was seen depends on the method and setting. Binding seen in cells or lysates may run through a third protein. Some entries that bind do so weakly or less than the wild type. Tags and fused reporters may be left off the sequences shown.

Assays:
[1] = molecular target: T1, YFP-IL1RAPL1 (mouse) (UniProt P59823); experiment: co-IP; HEK 293T cells co-transfected; lysed in TNE buffer (50 mM Tris-HCl pH 7.5, 1% Nonidet P-40, 150 mM NaCl, 5 mM EDTA); immunoprecipitation with anti-GFP or anti-FLAG antibody, western blotting with anti-FLAG or anti-Myc antibody
T1 sequence: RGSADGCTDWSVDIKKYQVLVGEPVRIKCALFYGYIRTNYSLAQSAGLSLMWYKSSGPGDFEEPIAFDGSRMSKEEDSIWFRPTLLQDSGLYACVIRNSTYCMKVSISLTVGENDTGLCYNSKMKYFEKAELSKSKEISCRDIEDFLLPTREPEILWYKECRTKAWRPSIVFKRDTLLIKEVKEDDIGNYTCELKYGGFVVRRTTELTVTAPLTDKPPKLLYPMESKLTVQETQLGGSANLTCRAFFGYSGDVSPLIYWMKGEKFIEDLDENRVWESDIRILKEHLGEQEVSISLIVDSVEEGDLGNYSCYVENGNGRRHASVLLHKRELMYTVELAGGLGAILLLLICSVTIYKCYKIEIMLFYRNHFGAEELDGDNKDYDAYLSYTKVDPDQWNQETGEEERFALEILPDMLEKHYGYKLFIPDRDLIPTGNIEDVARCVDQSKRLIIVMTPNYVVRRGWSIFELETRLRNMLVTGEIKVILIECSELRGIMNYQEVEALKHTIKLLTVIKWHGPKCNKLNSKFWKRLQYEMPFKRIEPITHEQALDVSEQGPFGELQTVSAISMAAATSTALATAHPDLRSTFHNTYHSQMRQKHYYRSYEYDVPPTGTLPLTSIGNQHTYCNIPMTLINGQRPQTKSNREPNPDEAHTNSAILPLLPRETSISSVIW

[2] = molecular target: T2, MBP-fusion protein with the TIR domain of IL1RAPL1 (mouse) (UniProt P59823); experiment: pull-down; lysates of transfected HEK 293T cells incubated with amylose resins coupled to purified MBP-fusion proteins of IL1RAPL1 domains; immunoblotting with anti-FLAG or anti-Myc antibody; only the target purified
T2 sequence: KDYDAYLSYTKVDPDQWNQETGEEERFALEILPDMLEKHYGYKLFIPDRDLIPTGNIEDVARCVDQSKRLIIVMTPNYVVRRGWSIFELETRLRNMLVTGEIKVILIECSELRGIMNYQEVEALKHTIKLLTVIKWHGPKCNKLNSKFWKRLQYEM

B1: FLAG-Mcf2l (protein, UniProt Q64096 1-1149)
chain: MSDCWCFIFCKEHVRSNPLSPQHDGASREEADHQVDVSDGIRLVPDKAEATAATASDEIMHQDIVPLCAADIQEQLKKRFAYLSGGRGQDGSPVITFPDYPAFSEIPDKEFQNVMTYLTSIPSLQDAGIGFILVIDRRQDKWTSVKASVLRIAASFPANLQLVLVLRPTGFFQRTLSDIAFKFNRDEFKMKVPVMMLSSVPELHGYIDKSQLTEDLGGTLDYCHSRWLCHRTAIESFALMVKQTAQMLQAFGTELAETELPNDVQSTSLVLSAHTEKKAKVKEDLQLALKEGNSILESLREPLAESAAHSVNQDQLDNQATVQRLLAQLNETEAAFDEFWAKHQQKLEQCLQLRHFEQGFREVKTTLDSMSQKIAAFTDVGNSLAHVQHLLKDLTAFEEKSSVAVDKARALSLEGQQLIENRHYAVDSIHPKCEELQHLCDHFASEVTRRRGLLSKSLELHSLLETSMKWSDEGIFLLASQPVDKCQSQDGAEAALQEIEKFLETGAENKIQELNEIYKEYECILNQDLLEHVQKVFQKQESTEEMFHRRQASLKKLAAKQTRPVQPVAPRPEALTKSPSPSPGSWRSSENSSSEGNALRRGPYRRAKSEMSEPRQGRTSSTGEEEESLAILRRHVMNELLDTERAYVEELLCVLEGYAAEMDNPLMAHLISTGLQNKKNILFGNMEEIYHFHNRNIPAGLESCIDCPELVGRCFLERMEEFQIYEKYCQNKPRSESLWRQCSDCPFFQECQKKLDHKLSLDSYLLKPVQRITKYQLLLKEMLKYSKHCEGAEDLQEALSSILGILKAVNDSMHLIAITGYDGNLGDLGKLLMQGSFSVWTDHKKGHTKVKELARFKPMQRHLFLHEKAVLFCKKREENGEGYEKAPSYSYKQSLNMTAVGITENVKGDTKKFEIWYNAREEVYIIQAPTPEIKAAWVNEIRKVLTSQLQACREASQHRALEQSHSLPLPTPSSTSPTKGNTRNVKKLEDRKTDPLSLEGYVSSSLPKPPEKGKGWSKTSHSLEAPEEDGGWSSAEELINSSDAEEDGGVGPKKLVPGKYTVVMDDEKGGPDTLAMRSGDMVEVVEEGAEGLWYVRDLTSSKEGWVPASSLSTLLGKSSSAQCLSSSGKIHCARQLCPEPAEILSPEPV
binding [1]: binds | binding [2]: binds
